Hit rate of the full screen: of about 310,000 compounds, about 2,200 (0.71%) showed an effect of 50% or more. Effects have a minus sign here. The list shows a part of the results.
These molecules were tested against human ether-à-go-go-related gene (hERG) potassium channel (human, UniProt Q12809) (assay: primary screen, population patch clamp on CHO cells stably expressing hERG).
Sequence of human ether-à-go-go-related gene (hERG) potassium channel (Q12809 whole entry, looked up): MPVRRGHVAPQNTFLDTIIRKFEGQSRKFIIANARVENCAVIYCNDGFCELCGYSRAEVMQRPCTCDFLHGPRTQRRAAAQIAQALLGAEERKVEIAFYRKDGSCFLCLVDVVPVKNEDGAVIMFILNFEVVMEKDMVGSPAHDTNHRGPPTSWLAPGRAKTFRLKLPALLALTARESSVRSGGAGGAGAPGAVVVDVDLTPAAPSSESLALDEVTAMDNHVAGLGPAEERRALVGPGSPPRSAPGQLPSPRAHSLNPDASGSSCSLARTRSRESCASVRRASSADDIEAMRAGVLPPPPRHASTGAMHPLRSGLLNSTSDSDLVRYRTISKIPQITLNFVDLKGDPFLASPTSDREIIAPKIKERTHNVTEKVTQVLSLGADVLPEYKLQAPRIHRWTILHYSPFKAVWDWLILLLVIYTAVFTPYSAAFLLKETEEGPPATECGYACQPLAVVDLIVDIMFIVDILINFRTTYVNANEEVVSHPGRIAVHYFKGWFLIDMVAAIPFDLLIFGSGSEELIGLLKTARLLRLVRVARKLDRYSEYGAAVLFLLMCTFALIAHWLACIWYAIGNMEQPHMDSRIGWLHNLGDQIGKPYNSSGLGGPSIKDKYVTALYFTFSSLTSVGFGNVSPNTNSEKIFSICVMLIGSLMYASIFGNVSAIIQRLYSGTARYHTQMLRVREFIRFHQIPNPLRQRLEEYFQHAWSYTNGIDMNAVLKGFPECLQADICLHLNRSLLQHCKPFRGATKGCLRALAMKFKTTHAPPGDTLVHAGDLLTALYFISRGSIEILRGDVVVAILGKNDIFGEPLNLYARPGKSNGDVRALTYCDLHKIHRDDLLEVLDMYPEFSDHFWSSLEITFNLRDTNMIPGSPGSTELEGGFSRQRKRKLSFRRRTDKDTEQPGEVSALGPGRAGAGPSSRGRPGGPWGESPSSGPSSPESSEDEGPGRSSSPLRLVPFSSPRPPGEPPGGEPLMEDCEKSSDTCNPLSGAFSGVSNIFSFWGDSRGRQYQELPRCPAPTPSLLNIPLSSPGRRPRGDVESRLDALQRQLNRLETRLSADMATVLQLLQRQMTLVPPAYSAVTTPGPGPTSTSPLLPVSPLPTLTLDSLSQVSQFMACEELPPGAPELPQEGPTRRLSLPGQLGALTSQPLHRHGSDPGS

Row | SMILES | hERG current change (%, negative = inhibition) at 1uM
1 | COCCCNC(=O)c1cn(CCOC)c(=O)c2c1c1ccccc1n2C | 13.1%
2 | O=C(NCc1ccc(F)cc1)C1CCCN1S(=O)(=O)c1ccccc1C(F)(F)F (stereo not shown) | 5.13%
3 | Clc1ccccc1Cn1nnc2c(Nc3ccccc3)ncnc21 | 5.61%
4 | Cc1cc(SCC(=O)c2cccs2)nc2ccccc12 | -0.195%
5 | C=CCC(NCc1ccccc1)c1ccc(OC)cc1.O=C(O)C(=O)O (stereo not shown) | 15.5%
6 | NC(=O)C1CCN(C(=O)c2cc3c(s2)CCCCC3)CC1 | 8.45%
7 | C#Cc1ccc([C@H]2C=C(C(=O)N3CCN(Cc4ccccc4)CC3)O[C@@H](OCC)[C@@H]2CCCO)cc1 | 8.12%
8 | C/C(CC(=O)C(F)(F)F)=N\NC(=O)/C(C#N)=C/N(C)C | 10.3%
9 | Cc1ccsc1CNS(=O)(=O)c1ccc(F)cc1 | 1.61%
10 | CC/C=C\C/C=C\C/C=C\CCCCCCCC(=O)O | 9.04%
11 | O=C(Nc1cc(=O)[nH]c2ncnn12)c1ccccc1 | -13.3%
12 | COc1ccccc1C1C(C(=O)c2cc3ccccc3o2)=C(O)C(=O)N1CCN(C)C (stereo not shown) | 16.9%
13 | CC(=O)N1CCN(c2ccc(NC(=O)c3ccc(C(C)(C)C)cc3)cc2)CC1 | 16%
14 | Cc1ccc(/C=C/C(=O)Nc2nnc(C)s2)o1 | 15.5%
15 | CCOc1ccc(NC(=O)CSc2n[nH]c(=O)n2-c2ccccc2)cc1 | 2.07%
16 | Cc1ccc(C(=O)c2cc3ccccc3o2)cc1C | 8.45%
17 | CCOC(=O)N1CCC(Nc2nc3ccccc3nc2NS(=O)(=O)c2ccc(Cl)cc2)CC1 | 8.73%
18 | Cc1[nH]ccc(=O)c1OCc1ccccc1 | 25.2%
19 | Cc1nc2ccccc2nc1CN1CCN(Cc2ccc(F)c(F)c2)C(CCO)C1 (stereo not shown) | -6.36%
20 | COc1ccc(CNC(=O)CN(C(=O)CCC(=O)Nc2ccccn2)c2ccc3c(c2)OCO3)cc1 | 8.56%

Row | SMILES | hERG current change (%, negative = inhibition) at 1uM
21 | Nc1c(C(=O)OCC(=O)NCc2ccccc2)[nH]c(=O)[nH]c1=O | 16.4%
22 | CCOc1ccccc1N1CCN(C(=O)COc2ccc3c(C)cc(=O)oc3c2)CC1 | 3.38%
23 | COCCn1c(C(C)C)nc2sc3ccccc3c(=O)c2c1=O | -6.19%
24 | CN1CCN(c2cc(C(F)(F)F)nc3ccc(F)cc23)CC1 | -0.83%
25 | O=C(NCCN1C(=O)S/C(=C\c2ccc(OC(F)F)cc2)C1=O)c1cnccn1 | -19.2%
26 | COC(=O)[C@@H](NC(=O)Nc1cccc(Br)c1)C(C)C | 5.99%
27 | CC(NC(=O)CCC(=O)NC(C)c1ccccc1)c1ccccc1 (stereo not shown) | 17.3%
28 | CON(C)c1nc(OCC#N)nc(N(C)C)n1 | 18.5%
29 | CCOC(=O)c1ccc(S(=O)(=O)N2CC(=O)Nc3ccccc32)cc1 | 13.2%
30 | Cc1ccc(-c2nc3ccccc3o2)cc1NC(=O)Cc1cccs1 | 18.8%
31 | CN1C(=O)Nc2cccc3cccc1c23 | 11.1%
32 | COc1ccc(CCn2c(=O)[nH]c3cc(C(=O)N4CCN(c5ccccc5)CC4)ccc3c2=O)cc1OC | 6%
33 | O=C1CCC(=O)N1c1ccc(CSc2nnnn2C2CCCCC2)cc1 | 1.97%
34 | O=C1/C(=C\c2ccncc2)N2CCC1CC2 | 14%
35 | CCCC(=O)Nc1sc2c(c1C(=O)Nc1ccccn1)CCCC2 | 8.8%
36 | CCc1n[nH]c(=S)n1/N=C/c1ccc(N(C)c2ccccc2)cc1 | 12.2%
37 | Cn1cnnc1SCC(=O)NC(=O)NC1CCCC1 | 3.17%
38 | O=C(NCC(c1ccco1)N1CCOCC1)C1CCCCC1 (stereo not shown) | 1.12%
39 | COc1ccc(-c2nnn(-c3cc(Cl)cc(Cl)c3)c2N)cc1 | 9.38%
40 | COc1ccccc1NS(=O)(=O)c1ccc2oc(SCC(=O)N3CCNC3=O)nc2c1 | 2.59%

Row | SMILES | hERG current change (%, negative = inhibition) at 1uM
41 | Cc1ccccc1Cc1c(C)nc2nc(SCC(=O)N3CCC4(CC3)OCCO4)nn2c1C | 5.08%
42 | CCOC(=O)C1CCN(C(=O)COC(=O)c2oc3ccccc3c2C)CC1 | -7.33%
43 | CCOc1ccc(NC(=O)Nc2cccc(C)n2)cc1 | 11.7%
44 | O=C(CCl)N(C1CCCC1)C1CCS(=O)(=O)C1 (stereo not shown) | 17%
45 | O=C(Nc1ccc(F)cc1)C1CCCN(S(=O)(=O)c2ccc(-n3cnnn3)cc2)C1 (stereo not shown) | 6.76%
46 | CCC(C(=O)OCC(=O)Nc1ccccc1-c1ccccc1)c1ccccc1 (stereo not shown) | 4.45%
47 | N/C(=N\OC(=O)c1ccc(Br)o1)c1ccccn1 | 9.46%
48 | COc1cc(/C=c2/sc3nc(-c4ccccc4)c(-c4ccccc4)n3c2=O)cc(OC)c1OC | 2.36%
49 | c1ccc(Cc2nnc3sc(-c4ccc5c(c4)OCO5)nn23)cc1 | 9.58%
50 | Cc1ccoc1C(=O)Nc1ccc(CC(=O)O)cc1 | 7.5%
51 | COCCCNCCCCOc1cccc(Br)c1.O=C(O)C(=O)O | -3.01%
52 | COc1cc(NC(=O)c2cccnc2)c(Cl)cc1NC(=O)c1ccccc1 | 10%
53 | N#Cc1cccnc1Oc1ccccc1 | 10.4%
54 | CCOc1ccc(NC(=O)Cn2c(=O)n(CC3CCCO3)c(=O)c3ccccc32)cc1 (stereo not shown) | -0.549%
55 | COc1cccc(/C=N/NC(=O)CNC(=O)c2ccc(S(=O)(=O)N3CCCC3)cc2)c1OC | 16.1%
56 | O=C(CSc1ncn[nH]1)NCCC(c1ccccc1)c1ccccc1 | 9.59%
57 | COc1cc(C(O)P(=O)(OCC(C)C)OCC(C)C)cc(OC)c1OC (stereo not shown) | 18.8%
58 | Cc1cc(C)c2nc(SCC#N)cc(C)c2c1 | 13.4%
